Data published in US6258839A, “Isolation of naturally occuring isoflavanone and some clinical uses thereof” (priority 1997, dated 2001).

How the values were obtained:
[1] = test system: viruses containing mutations in RT codons affecting NNRTIs; experiment: activity against viruses with NNRTI resistance mutations; format: cell-based, HIV
[2] = test system: HIV in monocytes/macrophages (Mono/Mac's); experiment: in vitro anti-HIV activity in monocytes/macrophages; format: cell-based, HIV-1
[3] = biological target: T1, gp120-CD4 (UniProt P01730+P03375); experiment: gp120-CD4 binding, antigen-capture ELISA
T1 construct: purchased DuPont
Experimental: (§1) The binding of gp120 to CD4 was analyzed using an antigen-capture enzyme-linked immonosorbent assay (ELISA) from DuPont. All steps off the assay were carried out according to the manufacturer's protocols. The effect of the drugs on the in vitro activity recombinant reverse transcriptase (RT) was determined by a previously described method (Buckeit and Swanstron, AIDS RES HUMAN RETROVIRUSES, 7, 295-302, 1991). The assay measures the incorporation of (^3 H)-TTP to the artificial poly (rA): oligo (dT) or poly (rC): oligo (dG) homopolymer primer/template. Samples (5 μl) were blotted to DE81 paper, washed extensively with 5% dibasic sodium phosphate and then quantified on a Packard Matrix 9600 Direct Beta Counter. The compound 3'-Azido-3'deoxythymidine-5'-triphosphate served as a positive control for the inhibition for RT; and the absence of RT served as negative control.

[4] = test system: HIV-11118; experiment: microbe, parasite or virus in culture; format: cell-based, HIV-1; conditions: Human immunodeficiency virus 1
[5] = test system: PMBC's; experiment: growth inhibition of PBMC's in anti-HIV test; format: cell-based; conditions: Homo sapiens
[6] = biological target: T2, HIV-1 reverse transcriptase (Human immunodeficiency virus type 1 group M subtype B, UniProt P04585); experiment: inhibition of recombinant reverse transcriptase, (3H)-TTP incorporation; format: biochemical
T2 construct: in vitro activity recombinant reverse transcriptase (RT)
Experimental: as §1

[7] = test system: mice
[8] = stability of solutions and solid; format: physicochemical
Experimental: It is very soluble in propylene glycol (PG), polyethylene glycol (PEG) 400 and soybean oil. These solvents may be useful in formulating cosolvents suitable for pharmaceutical applications. The ethanolic solutions has UV absorptions in the 290-300 nm range, useful for analytical work. Aqueous solutions for analytical work were prepared in HPCD and diluted with water to the required concentrations. The stock solutions were stable when incubated for 48 hours at 37° C. and when stored at room temperature.
Stock solutions in ethyl acetate have been used for TLC work over 8 months without decomposition.

[9] = test system: 2',3'-dideoxy-inosine (ddl) mutants; experiment: activity against ddI mutants; format: cell-based, HIV
[10] = test system: HIV-1 AZT^sen; experiment: in vitro anti-HIV activity, AZT sensitive HIV-1; format: cell-based
[11] = test system: athlelet's foot fungal infection; experiment: oral administration to inventor, athlete's foot; format: in vivo, human; conditions: 3×1 mg per day for three days, one person
[12] = test system: HIV-1 DPS; experiment: in vitro anti-HIV activity, HIV-1 DPS; format: cell-based; conditions: Human immunodeficiency virus 1
[13] = test system: MCF7 cell line; experiment: NCI 60 cell line panel, MCF7; conditions: Homo sapiens
[14] = test system: HIV-1 A17; experiment: in vitro anti-HIV activity, HIV-1 A17; format: cell-based; conditions: Human immunodeficiency virus 1
[15] = test system: HIV-1RF; experiment: in vitro anti-HIV cytoprotection, HIV-1RF in CEM-SS; format: cell-based; conditions: for EC50: Human immunodeficiency virus 1, CEM-SS
[16] = test system: HIV-1 N119; experiment: in vitro anti-HIV activity, HIV-1 N119; format: cell-based; conditions: Human immunodeficiency virus 1
[17] = pharmacokinetics in mice
[18] = stability in hydrochloric acid; format: physicochemical; conditions: for loss of parent compound: 37° C.
Experimental: In 0.1 N HCl, only 10% degradation was observed after 24 hours. Loss of PMZ-1 was associated with the appearance of an earlier eluting peak.

[19] = i.v., 20 mg/kg, PEG 400:water (50:50)

In the case of COc1c(O)cc(C2COc3cc(O)cc(O)c3C2=O)cc1CC=C(C)C (racemic) [PMZ-1], the “activity against viruses with NNRTI mutations” value [1] is reported as “weak activity”, the “activity in Mo/Mo assays” value [2] is reported as “active” and the EC50 ([2]; Human immunodeficiency virus 1, Mono/MAC's) is reported as 0.2 µM. For the same compound, the EC50 ([2]; Human immunodeficiency virus 1, monocytes/macrophages) was under 1 µM, the “gp 120-CD4 Binding” value [3] was “No Binding” and the EC50 [4] was 0.16 µM. The IC50 [5] was 48 µM, the IC50 ([6]; ID50, RT, template/primer rA/dT) was 3 µM and 1.2 µM and 4.8 µM and the IC50 ([6]; ID50, RT, template/primer rC/dG) was 0.043 µM. The IC50 ([6]; ID50, inhibition of RT activity in virons, rC/dG, Table 8) was 0.072 µM, the appearance after toxicity ([7]; 100 mg/kg in HPCD, 2 hours after drug) was “appear normal” and the CNS toxicity [7, 19] was “disorientation”. For the same compound, the seisures [7, 19] was “no seisures”, the neurotoxicity ([7]; i.v., 100 mg/kg in HPCD) was “neurotoxicity” and the “stability of stock solutions” value ([8]; 48 hours at 37° C. and room temperature, aqueous HPCD) was “stable”. The “stability of ethyl acetate stock solutions” value ([8]; TLC, without decomposition) was “over 8 months”, the “stability at room temperature” value ([8]; several months, TLC) was “stable at room temperature for several months” and the “activity against ddI mutants” value [9] was “active”. The “activity against azidothymidine sensitive virus” value ([10]; AZT^sen) was “active”, the EC50 ([10]; Human immunodeficiency virus 1, HIV-1 AZT^sen) was 0.13 µM and the “effect on athlelet's foot fungal infection” value [11] was “total cure”. It also gave an EC50 [12] of 0.98 µM, a GI50 ([13]; MCF7) of under 0.025 µg/mL and a CC50 ([13]; MCF7, read-out: LC50) of 16.8 µg/mL (≈ 45.4 µM). The EC50 [14] was 4.2 µM, the “protection of the CEM-SS” value [15] was “good protection” and the EC50 ([15]; CEM-SS) was 0.11 µM. The EC50 ([15]; NCI AIDS anti-viral screen) was 0.1 µM, the EC50 [16] was 23 µM and the “bioavailability after i.p. and s.c. administration” value ([17]; mice, i.p. and s.c., 50-100 mg/kg) was “some bioavailbility”. For the same compound, the elimination from plasma ([17]; mice, i.v.) was “eliminated rapidly”, the “drug elimination compared with HPCD vehicle” value ([17]; mice, i.v., 20 mg/kg, PEG 400:water) was “much faster” and the “presence in liver, kidneys and small intestine” value ([17]; mouse, i.v., 10 mg/kg, first 60 minutes) was “detected readily”. The oral bioavailability ([17]; oral) was “very low”, the “compound found in the GI tract” value ([17]; oral, 250 mg/kg) was “substantial compound found in the GI tract” and the presence in urine ([17]; parenteral and non-parenteral administration) was “present in the urine”. The first-pass metabolism ([17]; possible metabolite peak in plasma after oral administration) was “suggestive of first-pass metabolism”, the concentration ([17]; read-out: drug plasma concentration, mice, i.v., 20 mg/kg, PEG 400:water, 5 minutes) was 41 µM and the concentration ([17]; read-out: plasma level at 180 minutes, mice, i.v., HPCD, 50 mg/kg, 180 minutes) was 0.3 µM. For the same compound, the rate of degradation ([18]; 0.1 N HCl, 60° C., 3 hours, vs 1.0 N HCl) was “slower”, the degradation ([18]; 0.1 N HCl, 24 hours) was 10% and the “loss of parent compound” value ([18]; 1.0 N HCl, 3 hours) was 20%. The “loss of parent compound” value ([18]; 1.0 N HCl, 24 hours) was 90% and the PMZ-1 not degraded ([18]; 1.0 N HCl, 60° C., 3 hours) was 5%.

Values after ≈ are worked out from the molar mass of the structure shown. Values joined by “and” are separate entries in the source; they are usually repeats but may differ in a detail not shown here. Equal entries are not always repeated. Where two headings read alike, the source gives them in different places.
